The whole screen tested about 310,000 compounds, of which about 2,200 (0.71%) showed an effect of 50% or more. Effects have a minus sign here. This is one part of the list.
molecular target: human ether-à-go-go-related gene (hERG) potassium channel (human, UniProt Q12809); assay: primary screen, population patch clamp on CHO cells stably expressing hERG
Sequence (Q12809 whole entry, looked up): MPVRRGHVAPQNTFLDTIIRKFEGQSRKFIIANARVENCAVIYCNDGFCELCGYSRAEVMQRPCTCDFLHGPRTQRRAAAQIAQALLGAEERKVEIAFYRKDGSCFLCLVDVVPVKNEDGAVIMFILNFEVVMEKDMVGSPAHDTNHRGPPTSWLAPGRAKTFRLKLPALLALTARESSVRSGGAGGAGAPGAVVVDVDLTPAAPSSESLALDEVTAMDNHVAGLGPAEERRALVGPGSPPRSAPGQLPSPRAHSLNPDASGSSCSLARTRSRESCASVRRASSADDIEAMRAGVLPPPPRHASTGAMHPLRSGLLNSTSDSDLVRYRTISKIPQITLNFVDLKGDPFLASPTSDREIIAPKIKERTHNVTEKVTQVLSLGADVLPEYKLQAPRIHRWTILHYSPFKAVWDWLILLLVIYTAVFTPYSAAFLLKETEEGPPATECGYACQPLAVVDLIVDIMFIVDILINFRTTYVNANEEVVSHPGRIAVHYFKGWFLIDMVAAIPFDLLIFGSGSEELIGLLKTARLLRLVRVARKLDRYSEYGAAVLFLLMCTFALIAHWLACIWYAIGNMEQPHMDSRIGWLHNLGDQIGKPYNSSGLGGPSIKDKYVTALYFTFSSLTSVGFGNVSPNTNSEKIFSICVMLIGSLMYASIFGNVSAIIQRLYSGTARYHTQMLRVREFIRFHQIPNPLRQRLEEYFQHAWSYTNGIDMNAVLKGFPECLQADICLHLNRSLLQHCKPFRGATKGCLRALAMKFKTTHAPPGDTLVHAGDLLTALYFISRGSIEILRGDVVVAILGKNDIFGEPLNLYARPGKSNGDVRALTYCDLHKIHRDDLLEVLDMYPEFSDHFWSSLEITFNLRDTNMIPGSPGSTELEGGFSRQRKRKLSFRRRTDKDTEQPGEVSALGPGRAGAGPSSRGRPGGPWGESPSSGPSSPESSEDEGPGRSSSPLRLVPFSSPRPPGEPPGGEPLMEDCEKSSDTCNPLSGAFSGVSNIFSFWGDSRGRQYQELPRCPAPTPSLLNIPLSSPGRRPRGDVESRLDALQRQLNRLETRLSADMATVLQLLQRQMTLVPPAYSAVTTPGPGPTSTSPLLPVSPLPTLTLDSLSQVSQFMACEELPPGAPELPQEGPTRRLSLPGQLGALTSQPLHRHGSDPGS

| Compound | hERG current change (%, negative = inhibition) at 1uM [%] |
| --- | --- |
| CSc1ccc(C(c2c(C(=O)O)[nH]c3ccccc23)c2c(C(=O)O)[nH]c3ccccc23)cc1 | 12.6 |
| C=CCNc1nc(-c2cccs2)c(CC(=O)O)s1 | -10.7 |
| Cc1[nH]c(=O)[nH]c(=O)c1S(=O)(=O)N1CCN(c2cccc(Cl)c2)CC1 | 5.81 |
| Cc1ccc(N2C(=O)C3C4C=CC(CNC(=S)Nc5ccc(Cl)cc5)(O4)C3C2=O)cc1 (stereo not shown) | 4.56 |
| Cc1[nH]n(C(N)=S)c(=O)c1N=Nc1ccc(Cl)cc1Cl | 7.32 |
| O=C(COc1ccc(S(=O)(=O)Nc2ccccc2)cc1)NCc1ccncc1 | 9.53 |
| O=[N+]([O-])c1cccc(/C=N/Nc2nc(NCc3ccccc3)nc(N3CCOCC3)n2)c1 | 14.7 |
| COC(=O)C1=C(c2ccc(-c3ccccc3)c(F)c2)C[C@@H]2CC[C@H]1N2C(=O)NCc1cc(C)oc1C(F)(F)F | -10.7 |
| CCC1(CC)NC(=O)N(CC(=O)OCC(=O)Nc2sccc2C#N)C1=O | 10.1 |
| Cc1csc(=O)n1CC(=O)OCC(=O)c1ccc(Br)cc1 | -4.33 |
| CC(=O)c1cccc(NC(=O)C(C)N(C)CC(=O)Nc2ccc(Cl)cc2)c1 (stereo not shown) | -1.89 |
| COc1cc(C2C(N3C(=O)c4ccccc4C3=O)C(=O)N2c2ccc(C)c(C)c2)cc(OC)c1OC (stereo not shown) | -0.347 |
| O=C(OCCN1C(=O)c2ccccc2C1=O)c1cc2ccccc2o1 | 15.7 |
| O=C(CSc1nc(C(F)(F)F)cc(=O)[nH]1)Nc1nccs1 | 13.1 |
| COc1ccccc1NC(=O)CN1CCN(CC(=O)Nc2cc(NC(C)=O)ccc2OC)CC1 | -3.68 |
| Cc1cccc(NC(=O)CSc2nc(C)c(Cc3ccccc3)c(=O)[nH]2)c1 | 14.5 |
| O=C(CN1CCOCC1)Nc1cc([N+](=O)[O-])ccc1Cl | 8.24 |
| CCOC(=O)C1(CC2CCCCO2)CCN(C(=O)Nc2ccc(SC)cc2)CC1 (stereo not shown) | 10.2 |
| CCOCCCn1cc(C(=O)c2cc(Br)ccc2O)cc(C#N)c1=O | 6.95 |
| CCOC(=O)CN1N=C(/C=C/c2ccc(OC)cc2)CCC1=O | 15.1 |
| Cn1cccc1C(=O)NC(=O)CSc1nc2ccccc2s1 | 17 |
| COc1ccccc1OC(C)C(=O)N1CCN(Cc2ccc3c(c2)OCO3)CC1 (stereo not shown) | 13.5 |
| CN(Cc1ccccc1)S(=O)(=O)c1nnc(NC(=O)c2ccccc2)s1 | 21 |
| CCOC(=O)C1C(=O)CC(C)(O)C(C(=O)OCC)C1c1ccc(Br)o1 (stereo not shown) | 2.52 |
| COc1cccc(N2C(=O)C(O)=C(C(C)=O)C2c2ccc(OC)c(OC)c2)c1 (stereo not shown) | 11.5 |
| Cc1noc(NS(=O)(=O)c2ccc(N/C=C\C(=O)c3ccccc3)cc2)c1C | 13.9 |
| CN(C)/C=C/C(=O)c1ccc([N+](=O)[O-])c(CS(=O)(=O)c2ccccc2)c1 | -4.39 |
| Cc1ccc(C2NC(=S)NC3=C2N2CCC3CC2)cc1 (stereo not shown) | 11 |

| Compound | hERG current change (%, negative = inhibition) at 1uM [%] |
| --- | --- |
| Cc1ccc(S(=O)(=O)[N-]c2c(C)n(C)n(-c3ccccc3)c2=O)cc1.[Na+] | 16 |
| COc1ccc(C(C(=O)NC(C)(C)C)N(Cc2ccccc2)C(=O)CCC(=O)Nc2cc(C)on2)cc1 (stereo not shown) | 19 |
| CCOc1ccc(C(=O)N/N=C/c2ccc(SC)cc2)cc1 | 10.5 |
| CC(=O)N1CCC(=NNc2ccc(S(N)(=O)=O)cc2[N+](=O)[O-])CC1 | 2.66 |
| CCn1cc(C(=O)O)c(=O)c2cc(F)c(N3CCN(S(=O)(=O)c4ccc5c(c4)OCCO5)CC3)cc21 | 10 |
| COCCNC(=O)COc1cccc(Oc2ccccc2)c1 | 2.41 |
| CCn1cc(Br)c(-c2nc3ccccc3c(=O)n2N)n1 | 1.49 |
| COc1ccc(CCNC(=O)c2ccccc2-c2ccccc2C(=O)O)cc1OC | 11.5 |
| Cc1ccc(/C=C/C(=O)Nc2cccc3cccnc23)o1 | -5.54 |
| CC[N+](C)(CC)CC(O)COCC1COc2ccccc2O1.[I-] (stereo not shown) | 5.58 |
| Cc1nc2ccc(NC(=S)NC(C)C)cc2nc1C | 3.13 |
| CCCS(=O)(=O)C(=C1NCCO1)S(=O)(=O)CCC | 4.32 |
| CC(C)CC(NC(N)=O)C(=O)OCC(=O)N(Cc1ccccc1)Cc1ccccc1 (stereo not shown) | 4.83 |
| COc1cc2c(cc1OC)C[N+](C)(C)CC2.[I-] | 16.7 |
| O=C1C=C(c2ccccc2)OC(c2ccccc2)O1 (stereo not shown) | 3.33 |
| CC(=O)c1c(C)[nH]c(C(=O)Nc2cccc3ccccc23)c1C | 12 |
| COc1cc(-c2nc3cnccn3c2Nc2ccccc2)ccc1O | 10.4 |
| COc1ccc2c(c1)Cc1sc(NC(=O)c3ccccc3)nc1-2 | 11.5 |
| Cc1nc(N2CCCCCC2)c2ccccc2n1.Cl | -7.29 |
| Cc1ccc(O)c(C2=NNC(c3ccc(Cl)cc3)C2)c1 (stereo not shown) | 21.3 |
| CC(C)CC(=O)N1CCC(O)(CS(=O)(=O)Cc2ccccc2Cl)CC1 | 7.28 |
| N#Cc1c(C(F)(F)F)cc(-c2cccs2)nc1SCc1cccnc1 | 12.3 |
| Cc1cccc(OCCSc2nc3ccccc3n2CCC(=O)O)c1 | 8.15 |
| COc1ccccc1C(=O)N/C(=C\c1cn(S(=O)(=O)N(C)C)c2ccccc12)C(=O)N1CCCC1 | 11.4 |
| Cc1ccc(S(=O)(=O)N(CC(=O)Nc2ccc(Cl)c([N+](=O)[O-])c2)C2CCCCC2)cc1 | 7.11 |
| O=C(NC(=S)Nc1ccccc1N1CCCC1)c1ccc(F)cc1 | 11.8 |
| CCN(CC)C(=O)Cn1c(=O)oc2ccccc21 | 11.4 |

Reference: paper PMC4336329 (PLoS ONE, 2015)
